# Measurements: paper PMC4336329 (PLoS ONE, 2015)
# Screen size: about 310,000 compounds; about 2,200 (0.71%) showed an effect of 50% or more. The effect is printed as a negative number. The list shows a part of the results.
# Biological target: human ether-à-go-go-related gene (hERG) potassium channel (human, UniProt Q12809)
# Test: primary screen, population patch clamp on CHO cells stably expressing hERG
# Sequence of human ether-à-go-go-related gene (hERG) potassium channel (Q12809 whole entry, looked up): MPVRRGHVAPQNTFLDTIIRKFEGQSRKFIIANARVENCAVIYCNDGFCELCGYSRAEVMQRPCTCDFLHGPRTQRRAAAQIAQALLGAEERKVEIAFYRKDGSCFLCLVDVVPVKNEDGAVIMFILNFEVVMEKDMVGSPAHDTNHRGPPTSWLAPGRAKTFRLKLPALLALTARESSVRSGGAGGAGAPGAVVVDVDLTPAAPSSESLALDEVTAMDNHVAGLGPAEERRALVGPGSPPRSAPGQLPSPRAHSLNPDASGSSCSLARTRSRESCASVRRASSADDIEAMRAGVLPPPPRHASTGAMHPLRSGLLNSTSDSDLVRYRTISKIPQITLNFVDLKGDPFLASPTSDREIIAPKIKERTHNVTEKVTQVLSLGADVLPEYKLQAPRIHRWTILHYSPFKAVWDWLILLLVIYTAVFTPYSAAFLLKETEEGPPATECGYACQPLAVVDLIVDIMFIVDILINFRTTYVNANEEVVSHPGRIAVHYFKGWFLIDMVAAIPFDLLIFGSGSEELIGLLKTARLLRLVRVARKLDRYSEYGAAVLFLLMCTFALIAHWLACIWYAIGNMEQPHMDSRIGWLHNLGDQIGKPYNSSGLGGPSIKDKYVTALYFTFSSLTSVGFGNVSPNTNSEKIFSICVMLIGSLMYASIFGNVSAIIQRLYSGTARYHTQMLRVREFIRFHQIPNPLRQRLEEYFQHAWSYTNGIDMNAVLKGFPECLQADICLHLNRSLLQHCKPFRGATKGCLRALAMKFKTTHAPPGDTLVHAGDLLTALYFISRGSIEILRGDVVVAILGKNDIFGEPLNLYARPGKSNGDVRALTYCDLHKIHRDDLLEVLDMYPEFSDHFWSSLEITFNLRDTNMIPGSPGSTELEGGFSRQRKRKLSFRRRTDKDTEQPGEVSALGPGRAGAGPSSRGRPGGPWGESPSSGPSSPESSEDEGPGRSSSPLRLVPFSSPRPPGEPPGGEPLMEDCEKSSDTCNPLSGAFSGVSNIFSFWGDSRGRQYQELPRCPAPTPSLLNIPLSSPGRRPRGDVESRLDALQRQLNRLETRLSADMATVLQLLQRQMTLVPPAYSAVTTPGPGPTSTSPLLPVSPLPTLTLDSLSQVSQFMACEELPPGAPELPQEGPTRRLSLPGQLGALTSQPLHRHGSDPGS
row,Compound,"hERG current change (%, negative = inhibition) at 1uM"
1,CCOC(=O)c1oc2ccccc2c1CSc1nnnn1-c1ccc(OC)cc1,7.3%
2,O=C1c2[nH]nc(-c3ccccc3O)c2C(c2ccc(F)cc2)N1Cc1ccco1 (centres unmarked),13.1%
3,CCCCC(=O)Nc1ccc(N2CCN(c3ccc(F)cc3)CC2)cc1,2.95%
4,Cn1c(CNc2ccc(O)cc2)nc2ccccc21,4.66%
5,CN(c1ccc(OCC(=O)Nc2nc3ccccc3s2)cc1)S(=O)(=O)c1ccccc1,18.2%
6,CCC(C)NCC(=O)Nc1ccc([N+](=O)[O-])cc1C(=O)Nc1ccccc1F (centres unmarked),6.92%
7,CN(c1ccc(C(=O)Nc2ccccc2C(F)(F)F)cc1)S(C)(=O)=O,8.09%
8,COc1cccc(C(=O)Oc2ccc3c(C)cc(=O)oc3c2C(C)=O)c1,8.21%
9,CCOC(=O)C1CCCn2c1nc1sc3c(c1c2=O)CCCC3 (centres unmarked),0.766%
10,O=C(CSc1oc(-c2ccc(F)cc2)nc1S(=O)(=O)c1ccccc1)NCC1CCCO1 (centres unmarked),2.06%
11,Cn1c(-c2ccc(N)cc2)nc2ccccc21,5.46%
12,CC(C)C1=NN(C(=O)c2ccccc2)C(O)(C(C)(C)C)C1 (centres unmarked),10.4%
13,O=C(Cc1ccccc1)NCC1COc2ccccc2O1 (centres unmarked),9.09%
14,CNC(=O)c1cc(S(=O)(=O)Nc2ccc(C)cc2C)ccc1C,14.9%
15,CC(C)Nc1nc(Cl)nc(NC2CCCCC2)n1,15.1%
16,Cc1cc(NC(=O)COC(=O)c2oc3c(ccc4ccccc43)c2C)no1,11.8%
17,Clc1ccc(-c2nnc(-c3ccccc3)nc2N2CCSCC2)cc1,10.4%
18,O=C(COC(=O)Cc1ccccc1F)Nc1ccccc1[N+](=O)[O-],-0.101%
19,CC(C)c1onc(C(=O)N2CCCCC2C)c1[N+](=O)[O-] (centres unmarked),8.23%

row,Compound,"hERG current change (%, negative = inhibition) at 1uM"
1,Cc1ccoc1C(=O)Nc1cccc(Oc2ccccc2)c1,9.45%
2,O=C(NC(=S)Nc1ccc(Cc2ccncc2)cc1)c1ccccc1F,1.48%
3,Cc1ccc(-c2nc(CSc3nc4ccccc4c(=O)n3CCO)cs2)cc1,21.4%
4,CC12CN3CC(C)(CN(C1)P3(=O)Oc1ccccc1)C2=O (centres unmarked),9.38%
5,CCOC(=O)n1c(=O)n(Cc2ccc(Cl)c(Cl)c2)c2ccccc21,9.25%
6,CN(CCc1ccccn1)C(=O)CC1C(=O)NCCN1Cc1cccc(F)c1 (centres unmarked),10.9%
7,O=C(NCc1ccccc1)C(c1ccco1)N(C(=O)c1ccccn1)c1ccc(F)cc1 (centres unmarked),12%
8,CCn1c(SCC(=O)Nc2ccc3c(c2)OCO3)nc2c1c(=O)n(C)c(=O)n2C,1.51%
9,O=C(O)C1CCCN(S(=O)(=O)c2ccc(-c3ccc(=O)[nH]n3)s2)C1 (centres unmarked),17%
10,COc1ccc(CNC(=O)CCSc2nc(-c3ccc4c(c3)OCO4)cc(C(F)(F)F)n2)cc1,9.84%
11,Cc1cc(-c2nc3ncccc3o2)ccc1N,3.4%
12,COc1ccc(N(CC(=O)N/N=C/c2cccnc2)S(=O)(=O)c2ccccc2)c(OC)c1,8%
13,CCN(CC)c1ccc2cc(/C(N)=N/NC(=O)c3cccs3)c(=O)oc2c1,-2.78%
14,CCC(NC(=O)c1ccccc1NC(=O)c1ccco1)C(=O)NNC(=O)c1ccncc1 (centres unmarked),10.2%
15,Cc1ccc(S(=O)(=O)N(C)C)cc1NC(=O)c1n[nH]c(=O)c2ccccc12,14%
16,COc1ccc(C2NC(=S)NC3=C2N2CCC3CC2)cc1 (centres unmarked),10.7%
17,c1ccc(-c2onc3cc4c(cc23)OCCO4)cc1,8.58%
18,CCc1nc2oc3ccc(C)cc3c(=O)c2cc1C(=O)OC,8.62%
19,COc1ccccc1Cn1c(=S)[nH]c2cc(C(=O)NCC(OC)OC)ccc2c1=O,17.4%

row,Compound,"hERG current change (%, negative = inhibition) at 1uM"
1,O=C(c1ccc2nsnc2c1)N1CCN(c2ccc([N+](=O)[O-])cc2)CC1,-57.4%
2,C=C(Cl)COc1ccc2c(CCC)cc(=O)oc2c1,1.04%
3,CCCC(=O)Nc1ccc2c(c1)nc1n2CCOC1,14.1%
4,NS(=O)(=O)c1ccc(N=Nc2ccc(O)c3ncccc23)cc1,17.6%
5,COC(=O)C(NC(=O)c1ccco1)(Nc1cc(C)ccn1)C(F)(F)F (centres unmarked),13.6%
6,O=C(NC1CCCN(CCc2ccccc2)C1)C1CCCC1 (centres unmarked),3.14%
7,O=C1CC(C(=O)N2CCc3ccccc32)CN1c1cccc(C(F)(F)F)c1 (centres unmarked),10.7%
8,CCOc1ccc(NC(=O)CSC2=NCCN2)cc1.Cl,3.32%
9,CCCC(C(=O)Nc1ccc2c(C)cc(=O)oc2c1)c1ccccc1 (centres unmarked),12.4%
10,Cc1ccc2c(c1)C1CN(C)CCC1N2C(=S)NC(=O)c1ccc(Cl)cc1Cl (centres unmarked),-33.6%
11,CCC1(C)CC(CCNS(=O)(=O)c2ccc(C)cc2)(c2ccc(C)cc2)CCO1 (centres unmarked),11.1%
12,CC(=O)Nc1ccc(S(=O)(=O)Nc2cccc(C(=O)Nc3ccccc3C(=O)O)c2)cc1,10.5%
13,CCOc1ccc(NC(=O)CN(C)C(=O)c2cc(S(=O)(=O)N3CCCCCC3)ccc2OC)cc1OCC,10.4%
14,COc1cccc(C(=O)Nc2ccccc2-c2ccccc2)c1,-1.34%
15,Cc1ccc2nc(SCC(=O)NCc3cccs3)c(C#N)cc2c1,-0.375%
16,O=P(OCC1CC1)(c1ccccc1)c1ccccc1,11.5%
17,CCC(CC)c1nnc(NC(=O)c2ccc(S(=O)(=O)N3CCc4ccccc4C3)cc2)s1,14.5%
18,COc1ccc(CN2CCN(C(=O)Cn3ncn4cccc4c3=O)CC2)c(OC)c1OC,5.28%
